# The list shows a part of the results. At the low end of the ranking, values are background and their order means little.
# Target: T1, GST-Rok (full length) (UniProt O34857)
# T1 sequence: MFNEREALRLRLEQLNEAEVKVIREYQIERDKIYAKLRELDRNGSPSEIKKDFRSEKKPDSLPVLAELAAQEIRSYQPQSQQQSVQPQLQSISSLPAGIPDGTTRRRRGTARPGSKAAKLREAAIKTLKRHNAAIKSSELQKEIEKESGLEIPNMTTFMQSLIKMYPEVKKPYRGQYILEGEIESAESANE
# Test: protein binding microarray;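 also: rank score from −0.5 (least bound) to 0.5 (best bound)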
# Details: Rok is a gene silencer of Bacillus subtilis; high values mean tight binding; most listed sequences are background and not binding sites; double strand, one strand shown
row,Sequence,binding signal [E-score]
1,AGATGAGA,-0.0539
2,TCTAAGAA,0.0223
3,CATTAGGA,-0.194
4,CGCACGTC,-0.00235
5,AACGGTGC,-0.265
6,GGACTCGA,-0.158
7,ACTTGTAG,0.185
8,ACTCAGCG,-0.163
9,CGTCAACA,-0.101
10,GTATCGAC,0.0694
11,AGTCCAAA,-0.0624
12,CCCAGCCC,-0.479
13,GAGCGGAC,-0.331
14,GCCTTAAC,-0.0156
15,CTCTATGC,0.00587
16,ATACACCC,0.0834
17,TCCGGTAA,0.0305
18,AGTTGGAG,-0.201
19,GGAGCCAA,-0.181
20,CAAGGTCA,-0.041
21,AGCCGCTA,-0.0418
22,GATTAATC,0.163
23,GTGTTTAA,0.047
24,CCAGGTCC,-0.222
25,GATCTTTA,0.0516

row,Sequence,binding signal [E-score]
1,GCCCTTCA,-0.242
2,TCGATAAA,0.266
3,GACTTCCA,0.105
4,AGGTTGAC,-0.156
5,CGGTGAGA,-0.151
6,CGTATTAG,0.115
7,CATGTACA,0.317
8,CGAGAAGA,-0.135
9,AATTTCCG,0.0676
10,AAATAGGT,0.311
11,GCGTGATA,0.215
12,ATCCAAAT,0.0276
13,ACGGACTG,-0.2
14,ATGGATTG,-0.0805
15,TGCGTTAA,0.0752
16,ATCGGTGG,-0.018
17,ATACATCG,0.2
18,GCGCCTTA,-0.327
19,AGCCCGGG,-0.309
20,AGGCCCTA,-0.18
21,AAACGACA,0.173
22,AGCACGCA,0.00389
23,ACTACGAC,0.158
24,GACCAACA,-0.134
25,AGCAGAGG,-0.325

row,Sequence,binding signal [E-score]
1,TCCACCGA,-0.225
2,ACAGATGT,0.0663
3,TACGAGGA,-0.0862
4,ATCCGACC,-0.374
5,CAGTTCTA,0.238
6,CTTAACCA,-0.046
7,ATCAGGTC,0.135
8,GGCGGCAA,-0.305
9,ATCGTGAC,-0.0687
10,AACTTTAC,0.278
11,CGATAGCC,-0.166
12,CTGTGCTA,-0.0616
13,CCGACTGA,-0.135
14,ACGTTTCT,0.215
15,AAGCTACC,0.291
16,CTCGGCAG,-0.145
17,CATATCTA,0.293
18,GCTCGGCA,-0.191
19,ACCTGCTA,-0.0576
20,CACTAAGG,-0.142
21,ACGACGAT,0.174
22,ACACAAAG,0.147
23,TTTAAAAA,-0.124
24,CCCAAGGC,-0.323
25,CAGTGGGC,-0.23

row,Sequence,binding signal [E-score]
1,ACAGACCA,-0.114
2,AGTTAAAA,0.197
3,CCAACGCA,-0.176
4,CGGAGTGA,-0.203
5,GAAGTGGC,0.0597
6,CCTGAGCA,-0.194
7,ATTTGCAC,0.091
8,AGAGACTC,-0.169
9,AAGAGTTC,-0.0802
10,CCCTATGC,-0.243
11,AAATGGAT,0.0511
12,AGCAGGGC,-0.221
13,ACTGGGGA,-0.167
14,CATCGCAA,0.122
15,AGGGGTTA,-0.0953
16,AAGGGCAC,-0.268
17,AAAGGAGC,-0.287
18,AGAGACGC,-0.117
19,CTCTGAGA,-0.078
20,CTAAGTGA,-0.0596
21,GGGGTACC,-0.286
22,TGAAGCCA,0.00954
23,CAAAATAA,0.0897
24,ATACAGAA,0.241
25,ATTAACAC,0.079

row,Sequence,binding signal [E-score]
1,GTGTTTTA,0.15
2,GGCGGCCA,-0.406
3,CGGCGCAA,-0.186
4,CGCAGTTC,-0.239
5,AACCGTTA,0.0486
6,ATGACTAG,0.133
7,GGGACTAA,-0.0784
8,CTACTTGA,0.115
9,GCTCTGTA,-0.0578
10,AGCTCATC,0.213
11,GATTCATA,0.295
12,ATTCCTGG,-0.229
13,AACGGTTC,0.108
14,CATACTGC,0.0219
15,ATCAATAC,0.214
16,CCATAGTC,-0.0195
17,ACAGAATG,0.13
18,ATGGGCGC,-0.193
19,ACCTGTGG,-0.229
20,TACAGACA,0.0873
21,AGCCTTGA,-0.189
22,ATATGTAG,0.391
23,AAGTGAGT,-0.0236
24,CCGTCCTC,-0.326
25,TGCAGCCA,-0.226

row,Sequence,binding signal [E-score]
1,ATTCGCTG,-0.0928
2,CCCCTTAC,-0.353
3,AGAACCTA,0.192
4,CGCAATCC,-0.197
5,GTCCGCGA,-0.198
6,TGAGCTAA,-0.0444
7,CCCAAGCG,-0.221
8,CTTTTCGC,0.14
9,GCATATAC,0.268
10,CAGAGAAC,0.0182
11,CGCCCAAC,-0.14
12,GGTAGTCA,0.125
13,AACAAAGT,0.0602
14,GCCTCGCA,-0.343
15,GTGGGTCA,-0.244
16,GGGGAACC,-0.333
17,AAGTTAAT,0.121
18,AACGAAAG,0.0822
19,CTGTATCC,0.0145
20,CCAAGGGA,-0.171
21,CCGTCCCG,-0.207
22,AATTGTCC,-0.017
23,CACCCCGG,-0.25
24,GATTATAA,0.208
25,AAGCGTAT,0.0405

row,Sequence,binding signal [E-score]
1,GACTTATC,-0.039
2,AGGCGAAC,0.0175
3,CGGTGGAA,-0.161
4,AGAGCCAT,-0.0273
5,TGGATCCA,0.0351
6,GCCCGCCA,-0.36
7,GAAGATGA,0.000716
8,AGGTCAAG,-0.0383
9,GTCGGGGA,-0.158
10,ACGGTGAT,0.0851
11,GGGCAGCA,-0.184
12,TCCTAAGA,-0.179
13,CGAACGGA,-0.0292
14,CGCTCACC,-0.114
15,CGGATTTA,0.0424
16,AGAAACCA,0.0962
17,CACCCCTC,-0.399
18,ATGCCATG,-0.171
19,CAAAGAGC,-0.308
20,AGCGTAAG,-0.0616
21,ACAACGTA,0.204
22,GAGGGCTA,-0.258
23,CGTTGCAC,-0.17
24,TATTAAAA,0.204
25,CACCCCAG,-0.385

row,Sequence,binding signal [E-score]
1,GTCTAACA,-0.0578
2,AGTTTCAC,0.181
3,CATGACCG,-0.155
4,GACAGTGA,-0.0714
5,CACCGTAG,-0.239
6,CGTGGCCC,-0.267
7,ACGTGATA,0.264
8,ATATTGTG,0.172
9,CGGAGAAC,-0.0682
10,AGACTCAA,-0.113
11,CGTTCGAA,-0.0525
12,GGTCAAAA,-0.0657
13,GCTTCTAA,0.0454
14,CAGGGCGC,-0.394
15,CGCAATGC,-0.0423
16,AGTAACGA,0.142
17,CGCGGGAA,-0.124
18,GCAATACC,0.148
19,CGCACTGC,-0.0457
20,GAGATCCC,-0.23
21,CCAAATAA,-0.0124
22,TAGGCGGA,-0.179
23,CCGGTTGA,-0.211
24,AGCCACTA,-0.0386
25,CCCGGGAC,-0.355

row,Sequence,binding signal [E-score]
1,ATTCGGGA,0.0877
2,CCGCATCA,-0.161
3,GCACTCGA,-0.0135
4,CGCCTGCC,-0.248
5,TCGTTGAA,0.0968
6,AAACAAGG,0.0361
7,AGCTGAAC,-0.165
8,CGTCGCCA,-0.201
9,AAGATCTT,0.109
10,CCCTCACC,-0.28
11,AATTTTGC,0.234
12,ATATAAGC,0.186
13,CCCATACG,-0.0759
14,ATTTAGCG,0.215
15,AGCGTACA,0.0297
16,GGTAATAA,0.313
17,AAAAAGTC,-0.0671
18,AGCGATAC,0.0328
19,GCTAGCAA,0.229
20,GCGCCGAA,-0.267
21,TTAACAAA,0.159
22,GCGCGCCC,-0.415
23,CGACGCGA,-0.322
24,AAGAAGTC,-0.069
25,TAGGTATA,0.329

row,Sequence,binding signal [E-score]
1,ACCGGAAA,-0.0576
2,GCACCACA,-0.0102
3,AAAAAAAA,0.0401
4,CTGCTGGA,-0.212
5,GCTATCAC,0.244
6,ATGTGGGC,-0.354
7,GAGAGGTA,0.0254
8,CCTGGCTA,-0.178
9,ACCTCTTA,0.122
10,AATACGCA,0.208
11,AGGTCATC,-0.0948
12,ACGTTGAC,-0.0959
13,CAAATAAC,0.172
14,AAGGACTA,0.0751
15,CCGTTAAC,-0.0454
16,ACCGGTGA,-0.144
17,ATACCAAC,0.256
18,GTTTTACA,0.203
19,AGGGTCAA,-0.134
20,ATCATGCA,-0.000789
21,GTAAAAAC,0.289
22,ACCATCGT,-0.0168
23,TCACGCAA,-0.104
24,CACGCGAG,0.0325
25,CAGCTCTA,-0.0716

row,Sequence,binding signal [E-score]
1,TGGCTGAA,-0.0265
2,CACTTCTA,0.193
3,CGAAGGCC,-0.277
4,ATCTTAGC,0.144
5,ACCCTCGA,0.0287
6,CATTCACA,-0.0251
7,AACTCTGA,0.0339
8,AGCGAATG,-0.0752
9,CGGCGGCC,-0.286
10,ACTGGCTA,-0.0799
11,CGCAGCCC,-0.35
12,CGAGTTGC,0.203
13,CTGACTCC,-0.234
14,AGCTAACT,0.0661
15,TAAATAAA,0.231
16,CCTGTACG,-0.115
17,ACTAACAC,0.00622
18,ACAGAGCA,-0.0211
19,ATACGCCC,-0.195
20,AAAATCCA,0.25
21,GCCAACTA,0.118
22,ACTTATTC,0.106
23,CCGTGCGA,-0.202
24,CTGTTCTC,-0.105
25,ATATGTAC,0.345

row,Sequence,binding signal [E-score]
1,CAGGTACA,0.079
2,CATTTCGG,0.0631
3,GCTCGCCC,-0.38
4,AGCCCTTG,-0.338
5,AACATCGC,0.00195
6,GGATTGGA,-0.136
7,TAACTAGA,0.224
8,AAACCTAA,0.124
9,CCCGGAGC,-0.215
10,ACGGGTCG,-0.242
11,CACTAGTG,0.0643
12,CAGATTGG,-0.0567
13,AGTCCCGG,-0.212
14,CGGCGACG,-0.126
15,CTATTATA,0.366
16,CACCGGGG,-0.393
17,AATGTCGC,0.000504
18,GCACACCC,-0.41
19,ATCATGCG,-0.0974
20,GCTTTTAA,-0.132
21,ACACGTTC,0.0945
22,AACCTGGG,-0.315
23,GTATTCGA,0.115
24,AACCCGTG,-0.268
25,TCATGTCA,0.0783

row,Sequence,binding signal [E-score]
1,CCTGCCTA,-0.00201
2,CGACTGGC,-0.246
3,CACGCGCG,-0.0875
4,AATGTAAA,0.299
5,CAGCTTAA,-0.0947
6,ACAGCTGG,-0.106
7,GACAGGAA,-0.211
8,CAGGACAC,-0.155
9,AAGTAACA,0.207
10,GAGTTTTA,0.203
11,CCCCCATC,-0.401
12,CATTTAAC,0.045
13,GCTAGGTA,0.284
14,ATCAGTCG,0.0426
15,AATGGGCA,-0.155
16,ACGCGCAG,-0.244
17,CGGTCGTC,-0.108
18,CGTATAAG,0.102
19,GGGCAACA,-0.254
20,ATTGTTTC,0.228
21,CCCTACAA,-0.0139
22,CTTGTTGA,-0.187
23,GCACTTCA,-0.15
24,CATACGAC,0.0062
25,ACCGGCGG,-0.218

row,Sequence,binding signal [E-score]
1,CTCGTCGC,-0.158
2,CGGTGAAA,-0.0143
3,CGGCTTAA,-0.0868
4,CAACGTTC,-0.0911
5,CTTTCGGA,-0.0359
6,CCCTTAAA,-0.0853
7,CTGTGAAC,-0.0504
8,CGCGTCTC,-0.118
9,AATCTCCC,-0.02
10,CCTTGTCC,-0.322
11,CATAGGAG,-0.131
12,ATTGACGA,-0.0185
13,CACGATAC,-0.0758
14,ACGCCTCT,-0.267
15,AAAGCTGG,0.0115
16,CACCTTCA,-0.186
17,CGCCCGGA,-0.292
18,AAAATTTC,0.0626
19,ATACAAGA,0.11

# Source: PMC6212790
